Results taken from the supplement of paper PMC10369915.
The list shows a part of the results. Cut-off read from the data, not from the text of the source: active = 3.2 or more and inactive = the rest. Most of these values are background signal.

biological target: SHP2 C-SH2 domain E139D; test: enrichment score (SH2-bound / input frequency) (ratio); bacterial display of known human phosphotyrosine sites (pTyr-Var adds point mutants) read by sequencing; higher = stronger binding; tyrosines were phosphorylated by kinases first; conditions: peptide library: pTyr-Var
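Note: displayed peptides selected on beads carrying the immobilized SH2 domain, with library peptides lacking any tyrosine serving as negative controls.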

Enrichment score, inactive:
LIHTKYPQLLP [AHCY_Y143] 1.02
LHRAHYDLCHT [AHSG_Y314_R317C] 2.36
GIVKAYYVHAR [AIPL1_Y267_R270H] 1.99
GIVKAYFVHAR [AIPL1_Y267_R270H_YF] 2.23
IVKAFYVHARA [AIPL1_Y268_R270H_YF] 1.7
IVKAFYVRARA [AIPL1_Y268_YF] 0.414
KELANYYKLHH [AK7_Y390] 1.23
KELAKYYKLHH [AK7_Y390_N389K] 1.5
KELAKYFKLHH [AK7_Y390_N389K_YF] 1.02
ELANYYKLHHI [AK7_Y391] 0.869
LENQTYFRSFE [AKAP9_Y2482_K2484R] 0.911
DCAAIYGNEPE [AKR1A1_Y50] 0.703
DCAAIYGNEPD [AKR1A1_Y50_E55D] 0.685
DCAAIYGSEPE [AKR1A1_Y50_N52S] 0.675
EKLIQYCQSKG [AKR1B1_Y199] 0.912
EKLIQYCQSKS [AKR1B1_Y199_G204S] 0.884
AIDVGYRLIDC [AKR1B1_Y40_H42L] 0.775
SHLEDYPFNAE [AKR1B10_Y310] 0.79
PFNAEYGGGGG [AKR1B10_Y316] 0.172

biological target: SHP2 C-SH2 domain wild-type; test: as above; conditions: peptide library: pTyr-Var

Enrichment score, inactive:
LIHTKYPQLLP [AHCY_Y143] 0.919
LHRAHYDLCHT [AHSG_Y314_R317C] 2.34
GIVKAYYVHAR [AIPL1_Y267_R270H] 1.92
GIVKAYFVHAR [AIPL1_Y267_R270H_YF] 2.59
IVKAFYVHARA [AIPL1_Y268_R270H_YF] 1.57
IVKAFYVRARA [AIPL1_Y268_YF] 0.296
KELANYYKLHH [AK7_Y390] 0.96
KELAKYYKLHH [AK7_Y390_N389K] 1.15
KELAKYFKLHH [AK7_Y390_N389K_YF] 0.693
ELANYYKLHHI [AK7_Y391] 0.763
LENQTYFRSFE [AKAP9_Y2482_K2484R] 0.768
DCAAIYGNEPE [AKR1A1_Y50] 0.754
DCAAIYGNEPD [AKR1A1_Y50_E55D] 0.652
DCAAIYGSEPE [AKR1A1_Y50_N52S] 1.34
EKLIQYCQSKG [AKR1B1_Y199] 0.834
EKLIQYCQSKS [AKR1B1_Y199_G204S] 0.925
AIDVGYRLIDC [AKR1B1_Y40_H42L] 0.994
SHLEDYPFNAE [AKR1B10_Y310] 0.678
PFNAEYGGGGG [AKR1B10_Y316] 0.74

biological target: SHP2 N-SH2 domain L43F; test: as above; conditions: peptide library: pTyr-Var

Enrichment score, inactive:
LIHTKYPQLLP [AHCY_Y143] 1.15
LHRAHYDLCHT [AHSG_Y314_R317C] 2.51
GIVKAYYVHAR [AIPL1_Y267_R270H] 1.76
GIVKAYFVHAR [AIPL1_Y267_R270H_YF] 2.58
IVKAFYVHARA [AIPL1_Y268_R270H_YF] 1.4
IVKAFYVRARA [AIPL1_Y268_YF] 0.258
KELANYYKLHH [AK7_Y390] 1.02
KELAKYYKLHH [AK7_Y390_N389K] 1.18
KELAKYFKLHH [AK7_Y390_N389K_YF] 0.845
ELANYYKLHHI [AK7_Y391] 0.763
LENQTYFRSFE [AKAP9_Y2482_K2484R] 0.699
DCAAIYGNEPE [AKR1A1_Y50] 0.673
DCAAIYGNEPD [AKR1A1_Y50_E55D] 0.597
DCAAIYGSEPE [AKR1A1_Y50_N52S] 0.618
EKLIQYCQSKG [AKR1B1_Y199] 0.777
EKLIQYCQSKS [AKR1B1_Y199_G204S] 0.828
AIDVGYRLIDC [AKR1B1_Y40_H42L] 0.915
SHLEDYPFNAE [AKR1B10_Y310] 0.587
PFNAEYGGGGG [AKR1B10_Y316] 0.748

biological target: SHP2 N-SH2 domain T42A; test: as above; conditions: peptide library: pTyr-Var

Enrichment score, inactive:
LIHTKYPQLLP [AHCY_Y143] 1.04
LHRAHYDLCHT [AHSG_Y314_R317C] 1.91
GIVKAYYVHAR [AIPL1_Y267_R270H] 1.39
GIVKAYFVHAR [AIPL1_Y267_R270H_YF] 2.12
IVKAFYVHARA [AIPL1_Y268_R270H_YF] 1.41
IVKAFYVRARA [AIPL1_Y268_YF] 0.347
KELANYYKLHH [AK7_Y390] 0.896
KELAKYYKLHH [AK7_Y390_N389K] 1.16
KELAKYFKLHH [AK7_Y390_N389K_YF] 0.792
ELANYYKLHHI [AK7_Y391] 0.667
LENQTYFRSFE [AKAP9_Y2482_K2484R] 0.668
DCAAIYGNEPE [AKR1A1_Y50] 0.635
DCAAIYGNEPD [AKR1A1_Y50_E55D] 0.552
DCAAIYGSEPE [AKR1A1_Y50_N52S] 0.589
EKLIQYCQSKG [AKR1B1_Y199] 0.929
EKLIQYCQSKS [AKR1B1_Y199_G204S] 0.801
AIDVGYRLIDC [AKR1B1_Y40_H42L] 1.13
SHLEDYPFNAE [AKR1B10_Y310] 0.559
PFNAEYGGGGG [AKR1B10_Y316] 0.887

biological target: SHP2 N-SH2 domain T52S; test: as above; conditions: peptide library: pTyr-Var

Enrichment score, inactive:
LIHTKYPQLLP [AHCY_Y143] 1.26
LHRAHYDLCHT [AHSG_Y314_R317C] 2.07
GIVKAYYVHAR [AIPL1_Y267_R270H] 1.81
GIVKAYFVHAR [AIPL1_Y267_R270H_YF] 2.16
IVKAFYVHARA [AIPL1_Y268_R270H_YF] 1.56
IVKAFYVRARA [AIPL1_Y268_YF] 0.322
KELANYYKLHH [AK7_Y390] 1.15
KELAKYYKLHH [AK7_Y390_N389K] 1.39
KELAKYFKLHH [AK7_Y390_N389K_YF] 1
ELANYYKLHHI [AK7_Y391] 0.822
LENQTYFRSFE [AKAP9_Y2482_K2484R] 0.709
DCAAIYGNEPE [AKR1A1_Y50] 0.693
DCAAIYGNEPD [AKR1A1_Y50_E55D] 0.559
DCAAIYGSEPE [AKR1A1_Y50_N52S] 0.718
EKLIQYCQSKG [AKR1B1_Y199] 0.901
EKLIQYCQSKS [AKR1B1_Y199_G204S] 0.821
AIDVGYRLIDC [AKR1B1_Y40_H42L] 0.722
SHLEDYPFNAE [AKR1B10_Y310] 0.647
PFNAEYGGGGG [AKR1B10_Y316] 0.716

biological target: SHP2 N-SH2 domain wild-type; test: as above; conditions: peptide library: pTyr-Var

Enrichment score, inactive:
LIHTKYPQLLP [AHCY_Y143] 0.978
LHRAHYDLCHT [AHSG_Y314_R317C] 1.99
GIVKAYYVHAR [AIPL1_Y267_R270H] 1.92
GIVKAYFVHAR [AIPL1_Y267_R270H_YF] 2.52
IVKAFYVHARA [AIPL1_Y268_R270H_YF] 2.02
IVKAFYVRARA [AIPL1_Y268_YF] 0.401
KELANYYKLHH [AK7_Y390] 1.19
KELAKYYKLHH [AK7_Y390_N389K] 1.3
KELAKYFKLHH [AK7_Y390_N389K_YF] 0.963
ELANYYKLHHI [AK7_Y391] 0.9
LENQTYFRSFE [AKAP9_Y2482_K2484R] 0.861
DCAAIYGNEPE [AKR1A1_Y50] 0.889
DCAAIYGNEPD [AKR1A1_Y50_E55D] 0.564
DCAAIYGSEPE [AKR1A1_Y50_N52S] 0.69
EKLIQYCQSKG [AKR1B1_Y199] 0.668
EKLIQYCQSKS [AKR1B1_Y199_G204S] 0.943
AIDVGYRLIDC [AKR1B1_Y40_H42L] 0.87
SHLEDYPFNAE [AKR1B10_Y310] 0.662
PFNAEYGGGGG [AKR1B10_Y316] 0.608
